Consider three molecules from the supplement of paper PMC4604168 (melanoma cell lines).

Experiment in all cases: cell count relative to DMSO control; melanoma cells; higher = more viable cells
Common to all, as to settings: library dose: low library concentration; 72 h

Assay [1] deals with WM115.
Assay [2] relates to WM1716.
Assay [3] deals with WM1745.
Assay [4] concerns WM3526.
The subject of assay [5] is WM3619.
Assay [6] relates to WM451Lu.

Some of the results follow. Most values come without repeats; read them as rough.
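Also: cell number obtained by counting DAPI-stained nuclei in high-throughput microscope images with image analysis software, screen run in 1,536-well plates.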

In the case of `Cc1cc(Nc2cc(N3CCN(C)CC3)nc(/C=C/c3ccccc3)n2)n[nH]1` + Cc1cc([N+](=O)[O-])ccc1NS(=O)(=O)c1cc(Cl)ccc1Cl [FH535] (first compound 0.04 µM, partner dose 1 µM), the cell count in assay [1] is 80.8%; in assay [2], 91%; in assay [3], 87.3%; in assay [4], 89.9%; in assay [5], 110%; in assay [6], 95%.

Turning to `CC(C)C[C@H](NC(=O)[C@H](Cc1ccccc1)NC(=O)c1cnccn1)B(O)O` [Bortezomib] + COc1cc(N2CCC(N3CCN(C)CC3)CC2)ccc1Nc1ncc(Cl)c(Nc2ccccc2S(=O)(=O)C(C)C)n1 [NVP-TAE684] (first compound 0.001 µM, partner dose 0.08 µM), the cell count worked out at 98.8% in assay [1]; 47.1% in assay [2]; 61.8% in assay [3]; 61.5% in assay [4]; 28.4% in assay [5]; 85.2% in assay [6].

For the molecule `CC(C)C[C@H](NC(=O)[C@H](Cc1ccccc1)NC(=O)c1cnccn1)B(O)O` [Bortezomib] + O=C(CCCCCCC(=O)Nc1ccccc1)NO [vorinostat] (first compound 0.001 µM, partner dose 0.08 µM), the cell count in assay [1] worked out at 103%; in assay [2], 41.7%; in assay [3], 76.8%; in assay [4] it was 89.3%; in assay [5] it was 37.2%; in assay [6], 105%.
